One may read the inhibition as the relative decrease from the control value, in per cent.

Molecules are shown by their SMILES. Hit rate of the full screen: of about 340,000 compounds, about 6,900 (2%) were called active. Rule as the data show it: active = inhibition above about 30%; inactive = below that, where a call was filed. The entries are a selection whose mix differs from that of the whole data set. Entries without a call were filed so in the source.

Sequence of UniProt P14416 (P14416 whole entry, looked up): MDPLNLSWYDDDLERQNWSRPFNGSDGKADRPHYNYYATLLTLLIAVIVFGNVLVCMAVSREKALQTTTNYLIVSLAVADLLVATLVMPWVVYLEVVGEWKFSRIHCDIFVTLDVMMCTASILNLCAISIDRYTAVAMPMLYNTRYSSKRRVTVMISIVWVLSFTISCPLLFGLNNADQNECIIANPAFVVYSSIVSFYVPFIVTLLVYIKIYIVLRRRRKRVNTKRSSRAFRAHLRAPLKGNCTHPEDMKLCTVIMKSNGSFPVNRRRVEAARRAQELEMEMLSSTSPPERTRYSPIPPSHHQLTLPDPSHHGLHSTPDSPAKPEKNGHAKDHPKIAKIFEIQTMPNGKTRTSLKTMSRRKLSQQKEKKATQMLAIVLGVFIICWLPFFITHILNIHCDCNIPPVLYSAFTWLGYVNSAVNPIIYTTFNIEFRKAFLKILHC

The assay addresses D(2) dopamine receptor (Homo sapiens) (UniProt P14416). The assay can be described thus: HTS Assay for Allosteric Antagonists of the Human D2 Dopamine Receptor: Primary Screen for Antagonists. Also: 0% is about no effect. The conditions noted are these: HEK293 TREx D2 cells, calcium flux, dopamine EC80; at 10 µM; stronger effect = higher value. The method, boiled down:
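Measurement of antagonist activity uses fluorescent calcium dye in inducible HEK293 T-REx D2 cells: 10 s baseline, compound addition with 180 s read, EC80 dopamine addition with a further 180 s read.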
A general note: Calcium assays in cells follow changes in intracellular calcium, usually with a dye or a luminescent sensor.
Take `Cn1c(NCc2ccccc2F)nc2ccccc21`: the inhibition is -0.304%.

As to `Cc1cccc(C)c1NC(=O)C1CCN(S(=O)(=O)c2cccc3nsnc23)CC1`, the inhibition is -18.1%.

As for `Cc1cc(C)cc(OCCOCCn2c(-c3ccc(Cl)cc3)nc3ccccc3c2=O)c1`, the inhibition is -1.07%.

For `CCOc1ccc(-n2c(-c3ccc(OC)cc3)cc3c2CC(C)(C)CC3=O)cc1`, the inhibition came to 8.94%.

For the compound `C=Cc1ccc(CSc2nc(-c3ccc(Cl)cc3)nc3c2Cc2c(CO)cnc(C)c2O3)cc1`, the inhibition was -11.1%.

As for `Cc1ccc(NC(=O)CC2Sc3ccccc3NC2=O)c(C)c1` (stereo not given), the inhibition was -8.91%.

Take `CCOC(=O)c1ccc(-c2ccc(/C=C(\C#N)C(=O)Nc3cccc(C)c3)o2)cc1`: the inhibition is -7.02%.

As for `CCCCN(CCCC)S(=O)(=O)c1ccc(NC(=O)c2c(-c3ccccc3)noc2C)cc1`, the inhibition worked out at 4.96%.

As for `CCN(C(=O)c1cc(S(=O)(=O)N2CCCCC2)c[nH]1)c1ccc(OC)cc1`, the inhibition is 12%.

As for `CCOC(=O)c1cccc(NC(=O)N2Cc3ccccc3Oc3ncccc32)c1`, the inhibition was -9.14%.

In the case of `CCn1c(=O)c(=O)n(CC)c2cc(N3CCCCC3)c(NC(=O)c3cccc(OC)c3)cc21`, the inhibition is -20.6%.

Consider `Cc1nc(-c2ccc(F)cc2)c(CC(=O)N2CCN(S(=O)(=O)c3cccc([N+](=O)[O-])c3)CC2)s1`, for which the inhibition was active: 33.8%.

Take `COc1ccc(N2CCN(CC(O)COc3ccc(C)c(C)c3)CC2)cc1` (stereo not given): the inhibition was -17.5%.

For the compound `CC(=O)N1c2ccc(S(=O)(=O)NCCc3cccc(C)c3)cc2CC1C` (stereo not given), the inhibition is 5.85%.

With `CCOc1cccc(NC(=O)CSc2ncc(-c3ccc(Cl)cc3)[nH]2)c1`, the inhibition was 20.9%.

With `COc1ccc(-n2c(=O)c3c4c(sc3n(Cc3ccccc3)c2=O)CCC4)c(OC)c1`, the inhibition amounted to 16.9%.

For `CCCCN(C(=O)Cc1cccc(F)c1)c1c(N)n(CCC)c(=O)[nH]c1=O`, the inhibition is active: 36.5%.

In the case of `Cc1ccsc1CN1CCN(c2ccccn2)CC1`, the inhibition is active: 77.2%.

Turning to `COc1cccc(CN2c3ccccc3-c3nc(SCC(=O)Nc4cccc(C)c4)ncc3S2(=O)=O)c1`, the inhibition is -5.24%.

On to `COc1ccc(-c2cc(C(F)(F)F)nc(NCc3ccccc3)n2)cc1OC`, for which the inhibition was -0.559%.

Turning to `CC1CCc2c(sc3nnn(CC(=O)Nc4cccc(C(F)(F)F)c4)c(=O)c23)C1` (stereo not given), the inhibition was -14.1%.

For `COc1ccc(CNC(=O)c2cc(-c3ccccc3OC)on2)cc1`, the inhibition is active: 91.3%.

As for `O=C1C(=O)N(C2CCN(C(=O)c3ccc(F)cc3)CC2)CCN1Cc1ccc(F)cc1`, the inhibition was 8.32%.

In the case of `CCN1C(C(=O)c2ccccc2)=C(OC(=O)c2ccc(Cl)cc2)c2ccccc2S1(=O)=O`, the inhibition is -7.44%.

Turning to `CCc1nnc2c3ccccc3nc(Nc3ccc(F)cc3C)n12`, the inhibition is 7.43%.

For `CCOc1ccc(Br)cc1C1C(C(=O)Nc2ccccc2OC)=C(C)Nc2nnnn21` (stereo not given), the inhibition is -7.25%.

Turning to `CCc1ccc2oc(-c3cccc(NC(=O)c4ccc(-c5cccc([N+](=O)[O-])c5)o4)c3)nc2c1`, the inhibition amounted to 0.229%.

On to `Cc1cccc(OC(C)C(=O)N2CCC(c3nc4ccccc4o3)CC2)c1C` (stereo not given), for which the inhibition turned out to be 6.68%.

With `CC1=C(C(=O)Nc2ccc(Cl)cc2)C(c2cccs2)n2nc(SCc3cccc(Cl)c3)nc2N1` (stereo not given), the inhibition came to 1.73%.

Take `CCn1c(Oc2ccc(F)cc2F)nc2c1c(=O)n(C)c(=O)n2C`: the inhibition was -16.5%.

Consider `CCOc1ccc(CC(=O)Nc2c(C(=O)c3ccc(Cl)cc3)oc3ccccc23)cc1OCC`, for which the inhibition was -5.83%.

Take `Cc1cccc(S(=O)(=O)c2cn(Cc3ccccc3)c3cc(N4CCC(C)CC4)c(F)cc3c2=O)c1`: the inhibition was determined as 19.8%.

For `Cc1cccc(NC(=O)CCNS(=O)(=O)c2cccc3nonc23)c1C`, the inhibition is active: 30.7%.

As to `CCC1=Nc2cc(C(=O)NCCc3ccccc3)ccc2Sc2ccc(Cl)cc21`, the inhibition was -1.12%.

With `CCc1cc2c(cc3c(=O)n(CC(=O)NCc4cccc(Cl)c4)nc(CC)n32)s1`, the inhibition is -2.92%.

In the case of `COc1ccc(-n2nc3cc(C)c(NC(=O)COc4cccc(C)c4)cc3n2)cc1`, the inhibition was -0.495%.

For the compound `COc1cccc(OCc2nc3ccccc3n2Cc2ccccc2)c1`, the inhibition is -14.8%.

Regarding `COc1cccc(CNC(=O)C(=O)NCC(c2cccs2)S(=O)(=O)c2cccs2)c1` (stereo not given), the inhibition was determined as 6.9%.

Regarding `CCC(C)c1ccccc1N1CC(C(=O)N2CCN(S(=O)(=O)c3cccc([N+](=O)[O-])c3)CC2)CC1=O` (stereo not given), the inhibition is active: 35.8%.

`Cc1cc(S(=O)(=O)Nc2cc3c(cc2C)n(C)c(=O)c(=O)n3C)ccc1F`: the inhibition was 1.32%.

Regarding `Cc1ccccc1NC(=O)CSc1ncc2c(n1)-c1ccccc1N(C)S2(=O)=O`, the inhibition was found to be 6.04%.

On to `Cc1cn2c(=O)cc(COC(=O)c3cccc(NC(=O)C(C)Oc4ccccc4)c3)nc2s1` (stereo not given), for which the inhibition worked out at 10.3%.

In the case of `Cc1cc(C)c2c(n1)nn1c(C)c(CCC(=O)Nc3ccc(C)c(Cl)c3)c(C)nc21`, the inhibition was determined as 7.21%.

In the case of `Cc1csc2nc(COC(=O)c3ccccc3NC(=O)c3ccccc3Cl)cc(=O)n12`, the inhibition is -0.731%.

With `CNC(=O)C1CCC(Cn2c(=O)c3sccc3n(Cc3ccccc3)c2=O)CC1` (stereo not given), the inhibition is 10.2%.

With `COc1ccccc1CCNC(=O)c1cc2c(=O)n3cccc(C)c3nc2n1C`, the inhibition is 9.14%.

As to `COc1cc(OC)c(NC(=O)C(C)n2c(=O)cc(-c3ccccc3)c3c(C)nn(C)c32)cc1Cl` (stereo not given), the inhibition was -11.5%.

Consider `CCc1ccc(NC(=O)N2CC=C(c3c[nH]c4ccccc34)CC2)cc1`, for which the inhibition was -15.2%.

Consider `CCN(CC)c1ccc(NC(=O)CCS(=O)(=O)c2cccc3nsnc23)c(C)c1`, for which the inhibition amounted to 3.78%.

With `COc1ccc(C(=O)NCC(c2cccnc2)N2CCc3ccccc3C2)cc1` (stereo not given), the inhibition was -10.4%.

On to `CCOC(=O)c1[nH]c(C)c(CCC(=O)Nc2cc(Cl)ccc2C)c1C`, for which the inhibition was -5.55%.

Turning to `COc1cccc(COC(=O)c2nn(-c3ccccc3)nc2N)c1`, the inhibition was 13.6%.

Regarding `O=C(CCCn1cnc([N+](=O)[O-])n1)Nc1cccc(O)c1`, the inhibition was active: 34.7%.

In the case of `O=C(NCCS(=O)(=O)N1CCN(c2ccccc2F)CC1)c1cc(=O)c2ccccc2o1`, the inhibition is -2.8%.

`O=C(NCCc1ccc(Cl)cc1)c1ccc(CS(=O)(=O)Cc2ccc(F)cc2)o1`: the inhibition was -7.77%.

For the compound `O=C(Nc1ccc(F)cc1)c1ccc(-n2cnc3cccnc32)cc1`, the inhibition came to 13.1%.

Take `COC(=O)c1c(SC)nc2ccccc2c1OCc1cccc(C)c1`: the inhibition was -25.2%.

Take `CC(NC(=O)c1ccc(Cl)cc1)c1nnc(SCc2ccc([N+](=O)[O-])cc2)n1C` (stereo not given): the inhibition is active: 32.3%.

For `COc1ccc(NC(=O)C2CCCN(c3cc(C)nc4ncnn34)C2)cc1` (stereo not given), the inhibition was active: 30.1%.

As to `COCCn1c(C)cc(O)c(C(c2ccccc2)N2CCN(c3ccc(F)cc3)CC2)c1=O` (stereo not given), the inhibition was 0.939%.
